Consider 86 compounds from ChEMBL document CHEMBL1201862, “PubChem BioAssay data set” (2004).

SMILES strings stand for the structures.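 Cultured in 96-well plates, cells were exposed to test compound for 48 hours across five concentrations. The concentration for 50% growth inhibition is given as GI50.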 The source made the active and inactive calls. Cut-off read from the data, not from the text of the source: active = GI50 up to about 1.1 µM and inactive = higher. Where only a bound is given, the exact number is not on record here.

This experiment deals with NCI-H322M. In words: NCI-60 cell line screen, 48 h.
On to `COc1cc(O)c2c(=O)c3ccccc3n(C)c2c1`, for which the GI50 was inactive: > 100 µM. Turning to `Cc1ccc2ccccc2c1CSc1nc(N)nc2c1ncn2CC(C)C`, the GI50 is inactive: 56.2 µM. For `CC1(C)SC2C(NC(=O)Cc3ccccc3)C(=O)N2C1C(=O)O` (stereo unspecified), the GI50 is inactive: > 100 µM. Consider `O=c1oc2ccc3ccccc3c2cc1-c1nnc(Nc2ccccc2)s1`, for which the GI50 is inactive: > 100 µM. In the case of `Clc1ccc2c(SCC3CO3)c3ccccc3nc2c1` (stereo unspecified), the GI50 was inactive: 4.95 µM.

As for `CN(C1=NS(=O)(=O)N=C(N(C)c2ccccc2)O1)c1ccccc1`, the GI50 was inactive: 20.4 µM.

Consider `CCOc1ccccc1/N=N/c1c(-c2ccccc2)nn(C(=O)CC(=O)Nc2cccc(C)c2)c1-c1ccccc1`, for which the GI50 is inactive: > 100 µM. For the compound `O=C(Nc1ccccc1Cl)c1ccc([N+](=O)[O-])cc1`, the GI50 was inactive: > 100 µM. For the compound `O=C1[C@@H](c2ccc(Cl)cc2)[C@H]2CC=C[C@H]2N1O`, the GI50 is inactive: > 100 µM. `Cc1cnc[nH]c1=O`: the GI50 is inactive: > 100 µM. For the compound `O=S(=O)(NNc1ccccc1)c1ccccc1`, the GI50 is inactive: 29.4 µM. For the compound `CC(/C=C/c1ccccc1)=N\N=C(C)\C=C\c1ccccc1`, the GI50 is inactive: > 100 µM. For `CC(=O)OCCC[C@@H]1C(=C(C)C)CCC2[C@@]1(C)CC[C@@]1(C)C[C@](C)(CCC=C(C)C)CC[C@]21C` (stereo partly specified), the GI50 is inactive: > 100 µM.

For the compound `Nc1ccc(OCC(O)N2C(=O)c3ccccc3C2=O)cc1` (stereo unspecified), the GI50 was inactive: > 100 µM. As for `CS(=O)(=O)CC(=O)c1ccccc1`, the GI50 was inactive: > 100 µM. In the case of `O=C1CCCc2cc3c(cc21)CCC3C(=O)O` (stereo unspecified), the GI50 was inactive: > 100 µM. Regarding `CC(=O)N1CCC2(C=Nc3ccccc32)CC1`, the GI50 is inactive: > 100 µM. For the compound `Cc1ccc(-c2cc(=S)n(-c3ccccc3)c3[nH]c(=S)n(-c4ccccc4)c(=N)c23)cc1`, the GI50 is inactive: > 100 µM. Take `CC1=NN(c2ccccc2)C(=O)C1=C1SCCS1`: the GI50 was inactive: > 100 µM. Take `CCOC(=O)c1nc2ccccc2nc1NCc1ccc(Cl)cc1Cl`: the GI50 is inactive: > 100 µM. For the compound `Cc1c2cccc-2c(OCCO)cc2c3ccccc3n(C)c12`, the GI50 is inactive: 11.8 µM.

For `CCCC(=O)OC1C(CO)OC(n2cc(F)c(=O)[nH]c2=O)C1F` (stereo unspecified), the GI50 is inactive: 31 µM. For `CCSc1nnc2c(-c3ccccc3)n[nH]c2n1` the value was inactive: > 100 µM; for `Cc1ccc(N2CN3OC(=O)N(c4ccccc4)[C@@]3(c3ccccc3)C2)cc1`, inactive: 56 µM.

Take `Cc1ccc(C(=O)O/N=C2/CCCC/C2=C\c2ccccc2)cc1`: the GI50 was inactive: 50.4 µM. For the compound `CO[C@H](c1ccccc1)[C@H](C)N(C)c1ccc2ccccc2c1C1=NC(C)(C)CO1`, the GI50 was inactive: 23.4 µM. Regarding `O=C(Cc1ccccc1)NN1C(=O)/C(=C\c2cccc([N+](=O)[O-])c2)S/C1=N\c1ccccc1`, the GI50 was inactive: > 100 µM. With `N=c1oc2c(Cl)cc(Cl)cc2cc1C(=O)Nc1cccc2ccccc12`, the GI50 was inactive: 4.71 µM. As to `NC(=O)c1ccc(Cl)c([N+](=O)[O-])c1`, the GI50 is inactive: > 100 µM. As for `O=[N+]([O-])C1=Cc2cc(Cl)ccc2OC1c1cccc2ccccc12` (stereo unspecified), the figure is inactive: 1.67 µM; as for `Cc1ccc(C2=CC(=O)c3ccccc3C2=O)n1-c1ccccc1`, inactive: > 100 µM; as for `Cc1cc2nc(C#N)c(N3CCN(c4ccc([N+](=O)[O-])cc4)CC3)nc2cc1C`, inactive: 67.6 µM. For `C[Si](C)(C)/C=C/CN1C(=O)CCC1O` (stereo unspecified) the value was inactive: > 100 µM; for `COc1cc(CNC(=O)CCCCCCCCCCSC#N)ccc1O`, inactive: 14.8 µM; for `NC(=O)/C(=N\NC(=O)C[n+]1ccccc1)C1NC(=O)NC1=O` (stereo unspecified), inactive: > 100 µM.

Regarding `C=CCn1c(=O)c2ccccc2[n+]2c(-c3cccc([N+](=O)[O-])c3)csc12`, the GI50 is inactive: 63.4 µM. For `COc1ccc(NC(=O)C(=O)C2NC(=S)NC2=O)c(OC)c1` (stereo unspecified) the value was inactive: > 100 µM.

For the compound `C=C1C(=O)OC2/C=C(\C)C(O)/C=C\C(C)(O)CC(OC(=O)/C(C)=C/C)C12` (stereo unspecified), the GI50 was inactive: > 100 µM. For the compound `O=C(NCCCN1CCN(CCCNC(=O)c2cc(-c3ccccc3)nc3ccccc23)CC1)c1cc(-c2ccccc2)nc2ccccc12`, the GI50 was inactive: 17.6 µM. Regarding `CC1(C)CC(=O)C=C(NC(=O)c2ccccc2)C1`, the GI50 was inactive: > 100 µM. Regarding `CC1(C)OC[C@@]2([C@@H]3CC[C@@H](C3)C2(C)C)N1O`, the GI50 is inactive: > 100 µM. For `O=C(O)c1ccccc1CC1Cc2ccccc2C1` the value was inactive: > 100 µM.

For the compound `CCOC(=O)c1ncn2c1[nH]c(=O)c1ccccc12`, the GI50 was inactive: > 100 µM. With `CC(=O)OC[C@@H]1[C@H]2CC[C@]3(C)[C@@H](OC(C)=O)CC[C@H]3[C@@H]2CC[C@H]1C1(C)SCCS1`, the GI50 is inactive: > 25 µM. As for `ClCc1nc2cc(Cl)ccc2o1`, the GI50 is inactive: 13.4 µM.

Regarding `COc1cc(OC)c2c(=O)c(OC)c(-c3ccc4c(c3)OCO4)oc2c1`, the GI50 was inactive: 69.8 µM. As for `COc1ccc(/C=N\N2C(=O)Cc3ccccc32)cc1`, the figure is inactive: 46.8 µM; as for `CC(=O)C1=C(C)N(c2ccccc2)C2(O)C=CC(O)=C3C(=O)c4ccccc4C(=O)C312` (stereo unspecified), inactive: 18.3 µM. For `CC(C)N1CC2CC(CN(C(=O)c3ccc(Cl)cc3)C2)C1`, the GI50 was inactive: > 100 µM. `C/C=C/[C@@H](C(=O)OC)N1C(=O)c2ccccc2[C@H]1O`: the GI50 was inactive: > 100 µM. `COc1cccc(C(C#N)NNC(=O)c2c(Cl)c(Cl)c(Cl)c(Cl)c2-c2nc3cc(C(=O)c4ccccc4)ccc3[nH]2)c1O` (stereo unspecified): the GI50 was inactive: 11.9 µM. On to `NC(=O)c1cc2ccccc2o/c1=N/c1ccccc1`, for which the GI50 is inactive: > 100 µM.

Consider `CCOC(=O)CCC(NC(=O)c1ccc(N2CCN(c3c(C)nc(N)nc3N)CC2)cc1)C(=O)OCC` (stereo unspecified), for which the GI50 was inactive: 10.4 µM. As for `NC(=O)c1cc(C2OC(CO)C(O)C2O)nn1-c1ccc([N+](=O)[O-])cc1` (stereo unspecified), the GI50 was inactive: > 100 µM.

As for `OCc1ccc2c(c1)CC1(Cc3ccc(/C=N/O)cc3C1)C2` (stereo unspecified), the GI50 is inactive: 9.18 µM. With `CCC1(N=[N+]=[N-])C(=O)c2ccccc2N(C)C1=O` (stereo unspecified), the GI50 was inactive: > 100 µM. Consider `OC12CC/C(=N/OCc3ccccc3)CC1c1ccccc12` (stereo unspecified), for which the GI50 was inactive: > 100 µM. As for `Nc1ccccc1OCCCOc1ccccc1N`, the GI50 was inactive: > 100 µM.

In the case of `COc1cc([C@@H]2OC(=O)C3C2C(=O)O[C@H]3c2ccc(O)c(OC)c2)ccc1O` (stereo partly specified), the GI50 was inactive: > 100 µM. Consider `COc1ccc(C(=O)Cc2c(C(=O)c3ccccc3)c3ccccc3n2C(=O)c2ccccc2)cc1`, for which the GI50 is inactive: 47.5 µM. For the compound `CCOC(=O)c1c(O)nc2cccc3c2c1-c1cccnc1S3`, the GI50 was inactive: 36.5 µM. With `COc1ccccc1N1C(=O)/C(=C\c2cccc(Oc3ccccc3)c2)S(=O)(=O)C1c1ccccc1` (stereo unspecified), the GI50 is inactive: > 100 µM.

Regarding `N=C(CSSCC(=N)NCC12CC3CC(CC(C3)C1)C2)NCC12CC3CC(CC(C3)C1)C2`, the GI50 was inactive: 14 µM. For `CC(Cc1ccccc1)NC1=NCCO1` (stereo unspecified) the value was inactive: 78.5 µM.

Consider `CO[C@@H]1C[C@H]2[C@@H]3CC[C@H]([C@@H](C)CO)[C@@]3(C)CC[C@@H]2[C@@]2(C)CC[C@H]3C[C@]312`, for which the GI50 was inactive: 75.9 µM. In the case of `CSc1c(C#N)c(N)nc2c(/N=N\c3ccc(Cl)cc3)c(N)nn12`, the GI50 is inactive: 5.43 µM. `O=C(N/N=C/c1ccccc1)c1c(-c2cccnc2)cnc2ccccc12`: the GI50 is inactive: > 100 µM. On to `C/C(=N\NC(=S)NCCCNC(=S)N/N=C(\C)c1ccccn1)c1ccccn1`, for which the GI50 is inactive: 2.62 µM. On to `Cc1ccccc1-n1c(=O)c2ncn(CCCl)c2n(-c2ccccc2C)c1=S`, for which the GI50 was inactive: > 100 µM. With `Cc1n[nH]c(=O)n1/N=C/c1ccncc1`, the GI50 was inactive: > 100 µM. Regarding `COc1cc(-c2cc(-c3cc([N+](=O)[O-])c(/C=N/NC(=O)c4ccncc4)o3)ccc2OC)ccc1C`, the GI50 is inactive: > 100 µM. Turning to `C/C(=C\c1ccccc1)n1c(=O)cc(C)n1C`, the GI50 is inactive: > 100 µM.

In the case of `O=S1(=O)OCCOS(=O)(=O)C1(I)I`, the GI50 was inactive: 22.3 µM. As to `CC(C)=CCCC1(Sc2ccccc2)C(=O)OCC1C=C(C)C` (stereo unspecified), the GI50 is inactive: 12.1 µM.

In the case of `Cc1ccc(NC(=O)C(=O)CC(=O)c2c(C)[n+]([O-])c3ccccc3[n+]2[O-])cc1`, the GI50 is inactive: 21.2 µM. Consider `CCOC(=O)c1cc(OC(=O)CC)c2c(OC)ccc(OC)c2c1`, for which the GI50 is inactive: > 100 µM. As for `NC(=O)NCCCC(NC(=O)OCCCCCCn1ccc(=O)[nH]c1=O)C(=O)O` (stereo unspecified), the GI50 is inactive: > 100 µM. On to `C=C(c1ccccc1)[C@@]1(O)CC[C@@H]1N(CC#N)Cc1ccccc1`, for which the GI50 is inactive: 97.5 µM. For `Cc1ccc(S(=O)OC2C3CC4CC(C3)CC2C4)cc1` (stereo unspecified), the GI50 was inactive: > 100 µM. On to `N/C(=N\c1ccc(Cl)cc1)NS(=O)(=O)c1cccc2nsnc12`, for which the GI50 was inactive: 30.3 µM. Regarding `OC(COC(c1ccccc1)(c1ccccc1)c1ccccc1)C(O)CC1SCCS1` (stereo unspecified), the GI50 is inactive: 21 µM. As for `CC1CCC2(C)C(CC=C(C=O)C2(O)C=O)C12CO2` (stereo unspecified), the figure is inactive: 4.34 µM. As to `NC(=O)c1c[se]c(C2OC(CO)C(O)C2O)n1` (stereo unspecified), the GI50 is inactive: 6.04 µM. Take `CCOC(=O)Nc1cc2c(c(N)n1)N=C(c1ccccc1)CN2`: the GI50 was active: 0.01 µM. Regarding `Nc1nccc(Nc2ccc(S(N)(=O)=O)cc2)n1`, the GI50 was inactive: > 100 µM. As for `O=C(CCc1ccc(O)c(O)c1)c1ccc(O)c(O)c1O`, the figure is inactive: 59.3 µM.
